Measurements from the supplement of paper PMC3334620.
Over roughly 33,000 sequences, “E-score (-0.5 to 0.5)” has its median near -0.054; the highest 2% begin near 0.35. The list shows a part of the results.

biological target: T1, Stb5 (UniProt P38699); test: PBM E-score (8-mer binding enrichment) (E-score (-0.5 to 0.5)); higher = stronger / more preferred TF binding; most listed sequences are background and not binding sites; details: protein concentration: 200 nM; construct: GST-full length
T1 sequence: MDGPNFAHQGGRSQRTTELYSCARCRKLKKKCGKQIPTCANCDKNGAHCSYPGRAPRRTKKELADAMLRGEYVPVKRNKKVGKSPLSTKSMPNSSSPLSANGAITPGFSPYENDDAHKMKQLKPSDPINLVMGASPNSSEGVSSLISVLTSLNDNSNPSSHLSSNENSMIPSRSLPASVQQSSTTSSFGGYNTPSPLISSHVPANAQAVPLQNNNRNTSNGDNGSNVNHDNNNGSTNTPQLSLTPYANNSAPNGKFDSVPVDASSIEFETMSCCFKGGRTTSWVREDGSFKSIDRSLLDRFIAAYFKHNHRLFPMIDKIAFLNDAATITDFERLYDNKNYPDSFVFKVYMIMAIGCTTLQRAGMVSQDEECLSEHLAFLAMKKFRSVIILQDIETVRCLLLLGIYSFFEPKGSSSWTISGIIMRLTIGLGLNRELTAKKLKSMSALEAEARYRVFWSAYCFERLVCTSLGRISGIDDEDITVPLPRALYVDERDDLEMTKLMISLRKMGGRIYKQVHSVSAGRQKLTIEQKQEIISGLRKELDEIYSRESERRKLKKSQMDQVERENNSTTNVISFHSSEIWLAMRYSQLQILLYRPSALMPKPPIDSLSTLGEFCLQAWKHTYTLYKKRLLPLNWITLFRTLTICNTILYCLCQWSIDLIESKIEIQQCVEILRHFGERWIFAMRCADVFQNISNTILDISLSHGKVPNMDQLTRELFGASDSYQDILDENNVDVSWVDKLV
How it was run: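 Universal all-10-mer Agilent arrays, double-stranded by primer extension on fresh or once-stripped slides, were probed with about 100-200 nM GST-tagged yeast transcription factors made by PURExpress. Fluorescent anti-GST detected bound protein, and masliner normalised the scans. E-scores from the Universal PBM Analysis Suite were given to each ungapped eight-base word pooled with its reverse complement.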

Sequence | PBM E-score
AAAATTTG | -0.181
GGTGCGTA | 0.0529
ATGGTGTA | -0.118
GGAGCACA | -0.0909
AGCGCTCC | -0.0318
TCTCACCA | -0.0236
GCGGATCA | 0.0055
CATATGCC | 0.0465
ATTTGCCA | -0.255
AGATAACT | -0.0532
ACCTCCAG | -0.188
CGACAGGC | -0.026
ACGGGTAG | -0.0642
ATGTACGA | 0.0106
CAGGAACG | -0.0937
AAAAGCGT | -0.00882
AAGCTATC | -0.0782
GCCATGAC | 0.00819
GTAATTCA | 0.0673
CTGAGAGA | -0.118
ATCAGTGC | -0.161
GTAACCGA | 0.082

Sequence | PBM E-score
ATGAAGTG | -0.0718
CCGGAAGA | 0.153
AGTAAGGC | 0.0229
GAGTTGGC | -0.0115
CCCCAATA | -0.102
AAACCATC | 0.0667
AACCGACG | 0.286
AGTTCTAA | -0.0599
AGTGACTC | -0.17
CATACGCC | -0.00797
ACCACGCA | -0.177
CTAGTGTC | -0.0568
AATTAATT | -0.186
AGGACGTG | -0.187
GTTCTCGA | -0.21
AGGCCCCC | -0.0933
TAAGTCGA | -0.107
GTTCGATA | -0.036
AATCCCCG | 0.452
ATCCGGGC | 0.188
AAAGGTCC | 0.254
ACCTTGGA | -0.0871

Sequence | PBM E-score
AGAGAGTG | -0.259
ACTTATGA | -0.0404
GCTTTTTA | -0.0386
CTGGATAA | -0.0572
ACGTGAGA | -0.0529
TGGGTTAA | -0.0489
ACGTTACC | 0.13
GTGTCACA | 0.00199
CCAGGGAA | -0.356
CGATGGGA | 0.0551
ACACCTGG | -0.105
GAAGGTCC | 0.124
ATGGTTCG | -0.0398
GGTCAATA | -0.0135
ACGTACAG | -0.0609
ACGACGCG | -0.0646
GCAGCAGC | -0.179
GCACATCA | -0.141
AGGAGATG | -0.164
TAGACTAA | 0.0613
CACTGTGG | -0.209
GGGCCAAA | 0.0379

Sequence | PBM E-score
CGTTGATA | 0.212
GTTCCAGA | -0.162
ATTCAATC | 0.0338
AGGATTGG | -0.127
CCCAACCG | -0.182
CACAAGTA | 0.00419
AGAAGCAA | -0.184
AACCGCTC | 0.119
AGAGATCG | 0.0605
CATGTAAG | -0.0656
CTAAGGCC | 0.262
AATCCACT | -0.228
GCCTCGCA | -0.0909
ACGTGTCT | -0.194
CCGAGGAA | 0.0845
CTGCCAGC | -0.181
CCAGAGTA | -0.0529
ACTGCAAG | -0.214
TCTTAGAA | 0.0597
CACTTATA | 0.209
GGAGAGTA | -0.0463
ACTTTTGA | -0.0687

Sequence | PBM E-score
ACCATCGC | -0.0968
ACAATACG | 0.0226
ACACACTG | -0.182
CGACTTCA | -0.0336
AACTTTGC | -0.0649
CGAGTTTA | 0.179
GTTGCTTA | -0.0867
AACATCCG | 0.359
GCGTGTTA | -0.146
CCAAATTA | -0.15
AAACCGAA | -0.0132
CCCTAACG | 0.091
CCACTTTA | -0.164
CTGAGGTA | -0.0444
ACACATAT | -0.163
CACTAAGG | -0.09
CAATGACC | 0.127
GCGTGATA | 0.0637
AATAGCCG | 0.271
GCTATTGA | 0.168
CATTGTTC | 0.0384
